# Laboratory results reported in PubChem BioAssay AID1347417 (National Center for Advancing Translational Sciences (NCATS), 2020).
# In all, about 120,000 compounds went through this assay and about 5,300 (4.4%) were called active. The inconclusive results got no clear call from the source; some entries with a clear call stand among them for comparison. Calls follow the shape of the dose curve; as a rule, active = well fitted inhibition curve with a large enough effect; inconclusive = small, poorly fitted or top-dose-only effect; inactive = no such curve, though single readings can be large or run the other way. Potencies beside an inconclusive call are fits to weak or partial responses and may not hold up.
# Assay: qHTS Primary assay for Inhibitors of Plasmodium falciparum Dd2 growth in vitro; also: nearly all actives have a fitted effect of over 65% in size
# Conditions: P. falciparum Dd2 growth, SYBR Green, 72 h; series mostly up to 28.9 µM
# In short: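 Readout: SYBR Green fluorescence, 485 nm excitation, 535 nm emission, after ~16 h lysis at 37C. Before that, Dd2-infected red cells (2.5% hematocrit) grew 72 h with compound, 29 uM top final concentration.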
# Potency is read from the fitted curve at half-maximal effect; tags tell the direction and shape of the fitted curve.
row,SMILES,Potency
1,CCOc1ccc(Nc2c(S(=O)(=O)c3ccc(C)cc3)cnc3ccc(OC)cc23)cc1,inactive
2,COc1ccc(CC(=O)N2CC(=O)Nc3ccc(Br)cc3C2c2ccc(F)cc2)cc1OC (stereo unspecified),"inconclusive: 10 µM [inhibitor, single point]"
3,COc1cc2nc(NCc3ccccc3Cl)n3nc(-c4cccnc4)nc3c2cc1OC,"inconclusive: 1 µM [inhibitor, full curve, poor fit]"
4,Cc1ccc(CNC(=O)c2cnn(-c3ccc(F)cc3F)c2C2CCN(C(=O)OC(C)(C)C)CC2)cc1,active: 11.2 µM
5,COc1ccc(NS(=O)(=O)c2ccc3c(c2)n(C)c(=O)c(=O)n3C)cc1Cl,"inconclusive: 17.8 µM [inhibitor, single point]"
6,COC(=O)[C@@H]1Cc2ncn(C(C)C)c2CN1S(=O)(=O)c1cccc(C(F)(F)F)c1,"inconclusive: 0.0891 µM [inhibitor, full curve, poor fit]"
7,CCc1noc([C@@H]2CC(F)(F)CN2C(=O)CCn2cc(C)cn2)n1,inactive
8,O=C1NCCCCCN(C(=O)c2ccco2)[C@@H]2C[C@@H](C(=O)N3CCc4ccccc4C3)C[C@H]12,"inconclusive: 12.6 µM [inhibitor, single point]"
9,Cc1cccc(CC(=O)N2CC(C(=O)NCCc3ccncc3)C3(CCOCC3)C2)c1 (stereo unspecified),"inconclusive: 12.6 µM [inhibitor, single point]"
10,COc1ccc(C(=O)N2CCC(n3nccc3NC(=O)c3cccc(F)c3)CC2)cc1C,"inconclusive: 17.8 µM [inhibitor, single point]"
11,O=C(NCc1cccc(Cl)c1)c1cnc2c(c1)N(C(=O)CCc1ccccc1)CCC2,inactive
12,CCCOC1CCCN(C(=O)c2ccc3nc(-c4ccc(F)cc4)cn3c2)C1 (stereo unspecified),inactive
13,COCC1CN(Cc2ccc(F)c(F)c2)CC12CCNCC2 (stereo unspecified),"inconclusive: 5.62 µM [inhibitor, partial curve, poor fit]"
14,COc1cccc(N2CCN(C(=O)c3ccc4c(c3)C(O)CCCCCN4C)CC2)c1 (stereo unspecified),"inconclusive: 17.8 µM [inhibitor, single point]"
15,CC(=O)NC1(C)CCN(Cc2ccccc2-c2ccc3ccccc3c2)C1 (stereo unspecified),"inconclusive: 0.794 µM [inhibitor, full curve, poor fit]"
16,O=C1c2c(nc(COc3cccc(F)c3)n2Cc2ccccc2)NCCN1CC1CC1,inactive
17,CCc1nc2c(c(-c3ccc(OC)cc3)n1)CCN(Cc1ccc(F)cc1)CC2,"inconclusive: 8.91 µM [inhibitor, single point]"
18,Cc1nn2c(=O)cc(COC(=O)c3ccc(NC(=O)c4ccc(C(C)(C)C)cc4)cc3)nc2s1,"inconclusive: 17.8 µM [inhibitor, single point]"
19,O=C(c1ccc(Cl)cc1)N1CC2(CCN(CC3CCCC3)C2)OCc2ccccc21 (stereo unspecified),"inconclusive: 15.8 µM [inhibitor, single point]"
20,COc1ccc(C(=O)NC2CCCN(c3cc(-c4ccc(F)cc4)[nH]n3)C2)cc1F (stereo unspecified),inactive
21,CN1CCNc2cc(Nc3ccncc3)ncc2C1,inactive
22,CNc1nc2c(c(C(=O)N3CCCC3)n1)CN(C(=O)C(C)n1cc(C)cn1)CC2 (stereo unspecified),inactive

row,SMILES,Potency
1,Cc1ccsc1CN1CCC(CO)(CN2CCCC2)CC1,"inconclusive: 7.08 µM [inhibitor, partial curve]"
2,COc1cc(-c2nc3cnccn3c2Nc2ccc(C(C)C)cc2)ccc1O,"inconclusive: 11.2 µM [inhibitor, single point]"
3,Cn1c(=O)c2c(ncn2CC(=O)N2CCCC(Cc3nc(C4CCOCC4)no3)C2)n(C)c1=O (stereo unspecified),"inconclusive: 0.0708 µM [inhibitor, single point]"
4,COc1cccc(CNC(=O)CCS(=O)(=O)c2cc3c4c(c2)CCN4C(=O)CC3)c1,inactive
5,CN(C)C(=O)N1Cc2ccccc2OC2(CCN(C(=O)c3cccc4[nH]ccc34)CC2)C1,"inconclusive: 3.55 µM [inhibitor, partial curve]"
6,O=C(Cc1ccccc1)N1CCC(N2CC3CC(C2)[C@H]2CCCC(=O)N2C3)CC1 (stereo partly specified),inactive
7,Cn1cc(CN2CCCCCCNC(=O)[C@@H]3CCC[C@@H]32)c2ccccc21,"inconclusive: 12.6 µM [inhibitor, single point]"
8,COc1cccc(CN2CCCC(N3CCN(c4cccc(C(F)(F)F)c4)CC3)C2)c1O (stereo unspecified),active: 0.398 µM
9,COc1cccc(NC(=O)c2oc3ccc(S(=O)(=O)N4CCOCC4)cc3c2C)c1,"inconclusive: 11.2 µM [inhibitor, single point]"
10,Cc1cccc(CNC(=O)c2csc(N3CCN(c4ccccc4)CC3)n2)c1,"inconclusive: 7.94 µM [inhibitor, partial curve, poor fit]"
11,FC(F)(F)c1cccc(C2=NOC3(CCN(Cc4ccccc4)CC3)C2)c1,inactive
12,O=C(COc1ccccc1)N1CCC2(CC1)CC(N(C(=O)c1ccccc1)C1CC1)CCO2 (stereo unspecified),inactive
13,Cc1ccc(NC(=O)N2CCC(n3cnnc3C3CC3)C2)c(Cl)c1 (stereo unspecified),"inconclusive: 15.8 µM [inhibitor, single point]"
14,CCNc1ncnc2sc3c(c12)CCN(C(=O)c1ccncc1)C3,"inconclusive: 12.6 µM [inhibitor, single point]"
15,Cc1ccccc1CNC(=O)Cn1cc2c(n1)-c1c(oc(C(=O)N3CCCC3)c1C)CC2,"inconclusive: 10 µM [inhibitor, single point]"
16,COc1ccc(OC)c(CNC(=O)CCC(=O)N2Cc3ccccc3Oc3ncccc32)c1,"inconclusive: 11.2 µM [inhibitor, partial curve, poor fit]"
17,O=C(Nc1ccccn1)C1c2ccccc2C(=O)N(Cc2ccccc2)C12CCCC2 (stereo unspecified),"inconclusive: 2.24 µM [inhibitor, full curve]"
18,CCOCC(=O)N1CCC(N2CC(OCC3CC3)C23CCCCC3)CC1 (stereo unspecified),active: 5.01 µM
19,COc1cccc(-n2cc(C(=O)Nc3ccccc3C(N)=O)c3ccccc3c2=O)c1,"inconclusive: 10 µM [inhibitor, single point]"
20,O=C(C[C@H]1NC(=O)c2ccccc2NC1=O)Nc1ccncc1,inactive
21,CCOc1ccc(NC(=O)Cn2c(=O)n(Cc3ccccc3)c(=O)c3c4c(sc32)CN(C(C)=O)CC4)cc1,"inconclusive: 17.8 µM [inhibitor, single point]"
22,CC(C)(C)c1ccc(S(=O)(=O)N2CCC(c3ccncc3)CC2)cc1,"inconclusive: 20 µM [inhibitor, single point]"

row,SMILES,Potency
1,COc1cccc(C(=O)N2CCC(C(NC(=O)c3ccc(F)cc3)C(=O)NCC(C)C)CC2)c1 (stereo unspecified),inactive
2,Cc1ccc(C)c(-c2cc3c(=O)n(CCNC(=O)c4ccc(N(C)C)cc4)ccn3n2)c1,"inconclusive: 3.98 µM [inhibitor, partial curve, poor fit]"
3,COc1ccc(N2CCN(C(CNC(=O)C(=O)NCc3ccc(C)cc3)c3cccnc3)CC2)cc1 (stereo unspecified),"inconclusive: 10 µM [inhibitor, single point]"
4,CC(C)Oc1ccc(CNC(=O)C2CCN(C(=O)N3CCOc4ccc(Cl)cc43)CC2)cc1,"inconclusive: 11.2 µM [inhibitor, partial curve]"
5,Cc1cccc(NC(=O)CSc2nc3ccccc3c3nc(CCn4cncc4C)nn23)c1,active: 10 µM
6,CCN1CCN(C(=O)Cn2ncc3c4ccccc4n(Cc4ccccc4F)c3c2=O)CC1,active: 11.2 µM
7,Cc1ccc2c(c1)N(C(=O)Cn1ccn3nc(-c4ccc(F)cc4)c(CO)c3c1=O)CCO2,inactive
8,Cc1cccc(N2CCN(C(c3ccc(F)cc3)c3nnc(-c4ccccc4)o3)CC2)c1C (stereo unspecified),active: 11.2 µM
9,CN1CCCCCCN(C(=O)COc2ccccc2)[C@H]2CCC[C@H]2C1=O,"inconclusive: 10 µM [inhibitor, single point]"
10,CCc1ccc(OCC(=O)NCC(c2ccc(Cl)cc2)N2CCOCC2)cc1 (stereo unspecified),active: 11.2 µM
11,COc1cccc(CN2CCCC23Cc2ccccc2CNC3=O)c1 (stereo unspecified),"inconclusive: 8.91 µM [inhibitor, single point]"
12,CN(C)C(=O)c1n[nH]c2c1CN(C(=O)c1ccc(Br)cc1)CC2,inactive
13,COc1ccccc1NC(=O)c1sc2cccc(Cl)c2c1Cl,inactive
14,CCC1(O)CCCN(c2ncc(C(C)(C)C(=O)O)c(N3CCOCC3)n2)C1 (stereo unspecified),"inconclusive: 0.126 µM [inhibitor, full curve, poor fit]"
15,O=C(NC1CCCCC1)[C@@H]1Cc2nc[nH]c2CN1Cc1cc2ccccc2o1,"inconclusive: 1.26 µM [inhibitor, single point]"
16,COc1cc(C(=O)NC2CCCc3c2[nH]c2c(Cl)cccc32)cc(OC)c1OC (stereo unspecified),active: 1 µM
17,Cc1nc(-c2cnccn2)n(CC(=O)Nc2ccc3c(c2)OCO3)c(=O)c1C,"inconclusive: 10 µM [inhibitor, single point]"
18,O=C(NCCSc1c(-c2ccc(Cl)cc2)[nH]c2ccccc12)c1ccc(S(=O)(=O)N2CCOCC2)cc1,active: 8.91 µM
19,Cc1nn(C(=O)CCC(=O)N2CCC(Cc3nncn3CC3CC3)CC2)c2ccccc12,"inconclusive: 1 µM [inhibitor, partial curve, poor fit]"
20,O=C(c1ccco1)N1CC(F)(F)C[C@H]1c1nc(-c2ncccn2)no1,inactive
21,O=C(c1ccccc1)N1CCCC(n2cc(-c3nc(-c4ccccc4)no3)nn2)C1 (stereo unspecified),"inconclusive: 8.91 µM [inhibitor, partial curve]"
22,CCOC(=O)c1ccc(NC(=O)Cn2c(-c3ccc(F)cc3)nc(C)c(CCO)c2=O)cc1,"inconclusive: 3.98 µM [inhibitor, single point]"
